Assay [1] concerns the target rat Munc13-1(859–1407,1453–1531) fragment (MUN*) (rat, UniProt Q62768 859-1531, Munc13-1(859–1407,1453–1531)). The assay can be described thus: NMR titration.
The target in assay [2] is human SNAP25 (residues 11–82) (human, UniProt P60880 11-82). The assay can be described thus: assembly and ultrafiltration.
Assay [3] has as its target rat synaptobrevin-2 (residues 29–93) (rat, UniProt P63045 in part). Put plainly: assembly and ultrafiltration.
Assay [4] concerns the target syntaxin-1A(2–253) (R210E, C145S, S249C), rhodamine-labeled (rat, UniProt P32851, R210E | C145S | S249C). Put plainly: FRET or BRET. A general note: In BRET a luciferase serves as donor, and the signal depends on an acceptor being close.
Assay [5] concerns the target syntaxin-1A(2–253) (C145S, S249C), rhodamine-labeled (rat, UniProt P32851, C145S | S249C). The assay can be described thus: FRET or BRET.

Two molecules from paper PMC3087822 (Nature structural & molecular biology, 2011) can be followed below.

B1: syntaxin-1 SNARE motif ([…]) (domain or fragment)
chain: not shown
As usually defined, the Kd is the constant that tells how readily two partners part at equilibrium. A higher Kd goes with lower affinity. Take B1: binding in assay [1] was characterised by a dissociation constant (Kd) of 46 ± 20 µM. Further, the binding result in assay [2] and in assay [3] was “binds” throughout.

B2: synaptobrevin([…]) (S61C), BODIPY-labeled (domain or fragment)
chain: not shown
modifications: BODIPY fluorescence donor (Bodipy-FL-maleimide) on residue 61
As for B2, the binding result in assay [4] and in assay [5] was “binds” throughout.
